Data reported in PubChem BioAssay AID651820 (National Center for Advancing Translational Sciences (NCATS), 2012).
The campaign covered roughly 340,000 compounds. About 12,000 (3.5%) were called active. The shares of active, inactive and inconclusive entries below differ from those in the screen. The call rests on the fitted dose curve; in most records, active means well fitted inhibition curve with a large enough effect; inconclusive means small, poorly fitted or top-dose-only effect, or another doubt; inactive means no such curve, though single readings can be large or run the other way. No potency is given beside an inconclusive call; the fits are too rough.
On the % scale 0 is the no-effect control and ±100 the full control effect; potency means the concentration at half of the fitted maximal effect; tags describe the fitted curve by direction and shape.

Assay: qHTS Assay for Inhibitors of Hepatitis C Virus (HCV)
Settings: Huh7.5.1 HCVcc-Cre (HCVcc is cell-culture hepatitis C virus) infection, luciferase reporter, 44 h; activity change, negative = inhibition: at 41.8 µM (top of the series) unless noted
Method in brief: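 Luciferase read-out (15 sec integration) after a 15 min room-temperature substrate step quantifies HCVcc-Cre infection. Cells, 1,000 per well, had compound added 4 h post-plating, then virus at ~0.5 moi, and were cultured 44 h.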
For c1ccc(-c2nnc(SCC3CCCCO3)nc2-c2ccccc2)cc1 (stereo unspecified), the Potency was inconclusive [inhibitor, single point].
For COc1cccc(OC)c1OCCNCC1CSc2ccccc2O1 (stereo unspecified), the Potency was inconclusive [inhibitor, single point].
With O=C(Nc1ccncc1)c1cc(-c2cccc(Br)c2)nc2ccccc12 the Potency was inconclusive [inhibitor, single point].
For O=C(Nc1ccc2oc(-c3ccccc3)nc2c1)C1CCCO1 (stereo unspecified), the “activity change, negative = inhibition” value was inactive: -0.387%.
With COc1ccc(-c2sc3ccccc3c2-c2ccc(OCCN3CCCCC3)cc2)cc1 the “activity change, negative = inhibition” value was inactive: 16.7%.
With CC(C)C(NC(=O)c1ccc(C(C)(C)C)cc1)C(=O)Nc1ccc(N2CCOCC2)cc1 (stereo unspecified) the “activity change, negative = inhibition” value was inactive: 7.1%.
For COC(=O)C1CCCN1S(=O)(=O)c1ccc([N+](=O)[O-])cc1 (stereo unspecified), the “activity change, negative = inhibition” value was inactive: 2.63%.
For CCOC(=O)C1=C(CN2CCc3ccccc32)NC(=O)NC1c1cc(C)ccc1C (stereo unspecified), the Potency was inconclusive [inhibitor, partial curve].
For N#Cc1ccc(-c2cccnc2)nc1SCc1ccc(Cl)c(Cl)c1, the Potency was active: 11.2 µM.
In the case of O=C(CSc1ncn[nH]1)Nc1ccc([N+](=O)[O-])cc1Br, the “activity change, negative = inhibition” value is reported as inactive: -22.4%.
With COc1cccc(-c2ncc3ccccc3c2COC(=O)c2ccc(F)cc2)c1 the Potency was inconclusive [inhibitor, single point].
For O=C(/C=C/Sc1ncn[nH]1)c1ccc(Cl)cc1, the Potency was inconclusive [inhibitor, single point].
For COc1cccc(CNC(=O)COC(=O)c2nc(Cl)c(Cl)c(Cl)c2Cl)c1, the Potency was inconclusive [inhibitor, single point].
For CCC1(c2ccc(F)cc2)NC(=O)N(CC(=O)N2CCc3ccccc32)C1=O (stereo unspecified), the “activity change, negative = inhibition” value was inactive: -16.3%.
For COc1ccc2c(c1)-c1nc(/N=C/c3ccc(O)c(OC)c3)sc1CC2, the Potency was active: 11.2 µM.
In the case of Cc1cccc(-c2nnc(SCCC(=O)N3CCOCC3)o2)c1, the “activity change, negative = inhibition” value is reported as inactive: 25.1%.
With CN(NC(=O)Nc1ccc(Cl)cc1)c1ncc(C(F)(F)F)cc1Cl the Potency was inconclusive [inhibitor, single point].
For COc1cc2ncnc(NCCCN3CCOCC3)c2cc1OC, the Potency was inconclusive [inhibitor, single point].
With COc1ccc(OCC(=O)Nc2ccccc2O)cc1 the Potency was inconclusive [inhibitor, single point].
In the case of CC(=O)c1ccc(S(=O)(=O)N2CCN(C(C)C(=O)N(C)Cc3ccccc3)CC2)cc1 (stereo unspecified), the Potency is reported as inconclusive [inhibitor, single point].
For CCOC(=O)c1oc2cc(O)ccc2c(=O)c1-c1ccccc1OC, the “activity change, negative = inhibition” value was inactive: 8.66%.
